According to the RNAGym collection of RNA variant scans (doi:10.1093/nar/gkz1192):
Read counts are not given, so values of variants with three or more changes are uncertain.

B1: CPEB3 Ribozyme (parent)
chain: UAACAGGGGGCCACAGCAGAAGCGUUCACGUCGCAGCCCCUGUCAGAUUCUGGUGAAUCUGCGAAUUCUGCUGUAUAUCUC

Variants of: B1
Assay: self-cleavage, relative activity (ratio to wild type); higher = more cleavage; in vitro, sequencing
Summary of the method: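 CPEB3 self-cleaving ribozyme mutant libraries were made by rounds of error-prone PCR, barcoded, and transcribed in vitro with T7 RNA polymerase for 5 hours at 37°C. Cleavage occurred during transcription and a 15 min DNase I step before EDTA stop. RNAs were reverse transcribed with template switching and Illumina-sequenced, with DNA sequencing mapping barcodes to variants. Relative activity is the variant's cleaved/total read fraction divided by wild type's (minimum 5 reads), averaged across three batches.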

Row | Variant | self-cleavage
1 | G7A A56G U74C | 0.29
2 | G7A U25C C62U U67A | 0.04
3 | G7U A45U A65G | 0.09
4 | G7A U25C A57G C62A A65G U72A | 0.08
5 | G7C C23U A56G | 0.24
6 | G7C U26G A64C | 0.04
7 | G7C C17U A28G A75G | 0.03
8 | G7U A13G A15U A47U | 0.09
9 | G7C C11U U26C U60C U80C | 0.06
10 | G7A A15G A65G U76A | 0.15
11 | G7A A15G A65G U76C | 0.07
12 | G6U C11U C71G | 0.04
13 | G7A A64G U69C U76C A77G | 0.1
14 | G7U A18G U49G U78C | 0.25
15 | G7C A18U U51A A64G A65G U66C U67C | 0.07
16 | G7U A21U U41A U43C G53A | 0.14
17 | G7A U26C A45G U72C | 0.05
18 | G6U U31A A56G U69C | 0.11
19 | G7C U41C A57G U60A U72C | 0.08
20 | G7U A20G A35U C39U U72C U78C | 0.05
21 | G7A A45U U54G U76C | 0.07
22 | G7A A21G C32U C44G A45U U78C | 0.05
23 | G7C A18U A20U U31A U54G U78A | 0.04
24 | G7A A13G A15G U26C U78C U80C | 0.25

Row | Variant | self-cleavage
25 | G6U U25A U54A | 0.25
26 | G7U A21G A35U U60C | 0.12
27 | G7A U31C U74C C79U | 0.07
28 | G6U A20G A64U U69G | 0.08
29 | G7U A35U U41C U49C C68U U69A | 0.22
30 | G7A A65G G73A | 0.1
31 | G7A G24A U31C U74C | 0.14
32 | G7U A18U A20G | 0.06
33 | G6U A28G G33U U66A U72G U78C | 0.06
34 | G7U A28G U66C A77G | 0.12
35 | G7A G10A A20U | 0.21
36 | G6U U31C A45G U54A | 0.26
37 | G7A U31G U43C U49C | 0.07
38 | G7A U58C U76C | 0.06
39 | G7A U48C U60A A75C | 0.07
40 | G6U A21U A45G | 0.06
41 | G7C A20G A47G | 0.32
42 | G6U A75G U78C | 0.22
43 | G6U G10A U26C A28G A45G G46A | 0.06
44 | G7A U26A A35G U60C | 0.08
45 | G7C U25C C32U A57U G61A A64G | 0.16
46 | G7U A18G G19U U54G G55U A56G U74C | 0.15
47 | G7C A20U U25C | 0.33
48 | G7A U25C U41C A45G U67A | 0.14

Row | Variant | self-cleavage
49 | G7A U26C U51C U66A | 0.07
50 | G7A G22C A45U | 0.15
51 | G6U A20G A57G | 0.39
52 | G7U A28G G30A A35G U51A U66C U72C | 0.05
53 | G7A A13U G24A U26C U80C | 0.06
54 | G7A C39U A57G | 0.17
55 | G7A A13G A15G U26C U76A | 0.41
56 | G6U G8A C23U U41C U48C U51A | 0.05
57 | G6U C23G G30A A35G A45U A57G U80C | 0.03
58 | G7C A35G U51C U60C | 0.26
59 | G6U A18G C23G U25C U54C U78C | 0.06
60 | G7A A13U A28U A35G U41A A57G C62A | 0.05
61 | G7U A13U G52C U78C | 0.22
62 | G7A A64G U67C | 0.13
63 | G7C U25C U80C | 0.27
64 | G6U U51A U69G | 0.13
65 | G7A G19U U54C A75G | 0.03
66 | G7C A13G A18U A35U A57U | 0.24
67 | G6U A21C U80C | 0.09
68 | G7A G9A A15U G16A A18U U51C U72C | 0.06
69 | G7A A21G U66C U69C U76G | 0
70 | G7A A28G G53A U54A A64G | 0.22
71 | G7C G10A U72C A75G | 0.09
72 | G7C A45G A57U U69A U72C | 0.05

Row | Variant | self-cleavage
73 | G7A U25C U51A U58C | 0.12
74 | G7C C11A U26C U69A | 0.05
75 | G6U G9U A20G U41A | 0.06
76 | G7C U31A A45C U67A | 0.05
77 | G7A A13U C32U U43A C59U U74C | 0.21
78 | G7A C40G A47G U51A U54C U60C U69A | 0.07
79 | G7A A15G A21G U41A A56G | 0.03
80 | G7U A21U U26G U41A U51C A57G | 0.03
81 | G7A U43C U67C | 0.08
82 | G7U A15G U41C U54A U60A U72A | 0.14
83 | G7C C23U U51A U67A | 0.12
84 | G7A A15G A35C | 0.36
85 | G7A A35C U43C A47U | 0.04
86 | G7A C11U A28U G52U A57G U76C | 0.03
87 | G7A C44A G70A | 0.06
88 | G7A A35U U51C U58A A77U | 0.06
89 | G7A U25C U60C U67A | 0.16
90 | G7U A57G C68U | 0.05
91 | G7A A28G U31C A35U A57G | 0.14
92 | G7A U25C U67A U80C | 0.05
93 | G7A U31C U48C U78C | 0.06
94 | G6U A20G U43C U72C U80C | 0.29
95 | G6U C17U G24A U51C | 0.19
96 | G7A G63A U69A U78C | 0.06

Row | Variant | self-cleavage
97 | G7A A15C U51C A56U U60A U66G | 0.05
98 | G7U A15G A20U A35U A56G U67C | 0.05
99 | G7C U26C U67A | 0.22
100 | G6U C17U C71A | 0.18
101 | G7U A15G A28G U49A G61A U80A | 0.04
102 | G7C C12U U49C A75U | 0.05
103 | G7A A20G U25C A35G A47G U69C | 0.22
104 | G7A C11A A35U U43A | 0.06
105 | G6U A15U U67A | 0.06
106 | G7U A20U A28G C44U U66C U72C | 0.03
107 | G7U A15U U25C U80C | 0.2
108 | G7U A18G A21G U26C A56U | 0.6
109 | G7A C40U U49A | 0.21
110 | G6U U54C G61A | 0.4
111 | G7C U31C U54C U60C U72A U78A | 0.05
112 | G6U C17U U25A A64U | 0.04
113 | G6U U26C A35U U48C C62U U76C | 0.05
114 | G7U A15G G52C | 0.06
115 | G7A U69C U74C | 0.18
116 | G7C A13G U54A A65G U67C U72A | 0.03
117 | G7C U26C A28U U54C | 0.21
118 | G7U A28U U67A | 0.15
119 | G6U A18G A35U | 0.16
120 | G7U A45G A56G U60G | 0.15

Row | Variant | self-cleavage
121 | G7A U25C A57G U72A | 0.05
122 | G7A G9A G10U C11A U51C U76C | 0.07
123 | G7A U26C U67A U76A | 0.25
124 | G6U A45U U60C | 0.07
125 | G7U A15G G16C A18U C29G U80C | 0.19
126 | G7A U25C U76A | 0.07
127 | G7U A15U A28G U43C U48C U66A U69A | 0.04
128 | G7A A15U U31C U51A | 0.05
129 | G6U U51C A65G U67G | 0.09
130 | G7C A20G A21G A35U U43G U54G | 0.09
131 | G6U C32U U49A | 0.07
132 | G7A A13G G19A U41A G63A A75U | 0.04
133 | G7U A13G C29A A45U U72C | 0.29
134 | G7A U41C U72C | 0.05
135 | G7A A13U U69G U76G | 0.04
136 | G7A A35G A47G U69C U72A C79U | 0.03
137 | G6U G22U U41C A47G U69C | 0.07
138 | G7A U25C U43C U80C | 0.21
139 | G7A A64U U76A | 0.07
140 | G7C A13G A18U A65G U72A G73U | 0.05
141 | G7A A13G U67A | 0.07
142 | G7C U41G A65G U69A U72C U74C | 0.19
143 | G7A U25C U26A A45U A75G | 0.03
144 | G7A A13G U72G | 0.06

Row | Variant | self-cleavage
145 | G6U G9A C12U C38G U49C G52A G73C | 0.05
146 | G6U G8A U74G U76A | 0.05
147 | G7A A28G A56C A64U U67C U78C | 0.05
148 | G6U A28U U48C | 0.1
149 | G7A U25C A28C | 0.03
150 | G7A C12U U26G U43C U48C C62G U66C | 0.02
151 | G7A U25A U31G A35G C59U | 0.07
152 | G7U A13G A20G U60A U80C | 0.07
153 | G7C A47G U48C | 0.33
154 | G7A A20G U74C | 0.33
155 | G7A A13U U31G A35G | 0.09
156 | G7A A28G G33A A35G A64G | 0.1
157 | G6U U43A U51A C62A C68U | 0.07
158 | G7U A15G U48C U58C A77U | 0.1
159 | G7A U54G U80C | 0.25
160 | G7C U41C U78C | 0.32
161 | G6U A15U U26A A64G U67C | 0.22
162 | G7C A20G A28G A35G U72G | 0.03
163 | G7U A13G U26C C38U U41C U74C | 0.06
164 | G7A G10C U26G C50A U60C | 0.07
165 | G6U G24U G30A U51A U74C | 0.06
166 | G7A G55U U67C U69A U72C | 0.16
167 | G7A A20U C39A U80C | 0.06
